± gives the standard deviation. This is a selection; strong and weak results do not stand in their true shares.
tested on: MIWI (PIWIL1) piRISC loaded with L1MC piRNA (30 nt); experiment: pre-steady-state target cleavage rate (min^-1); MIWI and MILI are mouse PIWI proteins and EfPiwi is from a freshwater sponge; tags in brackets are library labels; higher = faster piRNA-guided slicing of the target; conditions: guide: L1MC piRNA 5'p-UAACUAAAUACUAUGCAAGCUGUAGGUCCU; auxiliary factor: 500 nM mouse GTSF1
Outline: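 Cleave-'n-Seq: 1 nM active affinity-purified piRISC with one synthetic guide and 0.1 nM transcribed, DNA-blocked target RNA library were mixed, with or without 500 nM GTSF1 partner protein, in HEPES–potassium acetate buffer at 33 °C for 0–8 or 0–960 min. Uncleaved targets were sequenced and normalised to depth and to weakly complementary targets, three trials were pooled, and k3 was capped at 0.0001 min^-1. The pre-steady-state cleavage rate was fitted […].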

| Sequence | pre-steady-state target cleavage rate |
| --- | --- |
| AGGACCUACAGCUUGCAUAGAUUUUAGUAA | 0.216 ± 0.041 |
| AGGACGUACAGCUUGCAAAGUAUUUAGUUA | 1.11 ± 0.057 |
| UCCUGGAUCAGCAUGCAUAGUAUUUAGUUA | 1.13 ± 0.067 |
| UCCUGCUACAGGUUGCAUAGUUUUUAGUUA | 0.252 ± 0.023 |
| UCCUGGAUCAUGCUUGCAUAGUAUUUAGUUA | 1.04 ± 0.054 |
| UGGACCUACAGCUUGCUUAGUUUUUAGUUA | 0.21 ± 0.021 |
| UCCACCAACAGCUUGCAUAGUAUUUAGAUA | 0.421 ± 0.041 |
| AGGACCUACAGCUUGCAUAGUAUUUAGUUC [g2:g30:cont:t1C] | 0.664 ± 0.055 |
| UCGACGUACAGCUUGCAUAGUUUUUAGUUA | 0.428 ± 0.016 |
| UCCUGCUACAGCUUGCAUAGUAUUUAGUUU [g2:g25:cont:t1U] | 0.948 ± 0.054 |
| UCCUGGAUCAGCUUGCUUAGUAUUAAGUUA | 0.178 ± 0.018 |
| AGGACCUACAGCUUGCAUUGUUUUUAGUUA | 0.126 ± 0.015 |
| UCGACCUACAGCAUUGCAUAGUAUUUAGUUA | 1.19 ± 0.082 |
| UCCUGCUACAGCUAGCAUUGUAUUUAGUUA | 0.844 ± 0.057 |
| UCCUGGAACAGCUUGCAUAGUAUUUCAGUUA | 0.231 ± 0.032 |
| UCGACCUACAGGUAGCAUAGUAUUUAGUUA | 1.29 ± 0.095 |

Source: the supplement of paper PMC10338343
